# Assay results: article PMC6919601, “Identification of Plasmodium dipeptidyl aminopeptidase allosteric inhibitors by high throughput screening” (PLoS ONE, 2019)
# Among all 110,000 compounds or so, about 230 (0.21%) showed an effect of 50% or more. The list shows a part of the results.
# Biological target: DPAP1 (Plasmodium falciparum, UniProt Q8IIJ9)
# Experiment: primary screen, percent inhibition; read by cleavage of a fluorogenic dipeptide substrate; higher = more effect of the substance
# Design: species or system P. falciparum D10 trophozoite lysates; single well
# 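Note: 30 min substrate incubation versus DMSO and 10 µM JCP410 controls.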
# Sequence of DPAP1 (Q8IIJ9 whole entry, looked up): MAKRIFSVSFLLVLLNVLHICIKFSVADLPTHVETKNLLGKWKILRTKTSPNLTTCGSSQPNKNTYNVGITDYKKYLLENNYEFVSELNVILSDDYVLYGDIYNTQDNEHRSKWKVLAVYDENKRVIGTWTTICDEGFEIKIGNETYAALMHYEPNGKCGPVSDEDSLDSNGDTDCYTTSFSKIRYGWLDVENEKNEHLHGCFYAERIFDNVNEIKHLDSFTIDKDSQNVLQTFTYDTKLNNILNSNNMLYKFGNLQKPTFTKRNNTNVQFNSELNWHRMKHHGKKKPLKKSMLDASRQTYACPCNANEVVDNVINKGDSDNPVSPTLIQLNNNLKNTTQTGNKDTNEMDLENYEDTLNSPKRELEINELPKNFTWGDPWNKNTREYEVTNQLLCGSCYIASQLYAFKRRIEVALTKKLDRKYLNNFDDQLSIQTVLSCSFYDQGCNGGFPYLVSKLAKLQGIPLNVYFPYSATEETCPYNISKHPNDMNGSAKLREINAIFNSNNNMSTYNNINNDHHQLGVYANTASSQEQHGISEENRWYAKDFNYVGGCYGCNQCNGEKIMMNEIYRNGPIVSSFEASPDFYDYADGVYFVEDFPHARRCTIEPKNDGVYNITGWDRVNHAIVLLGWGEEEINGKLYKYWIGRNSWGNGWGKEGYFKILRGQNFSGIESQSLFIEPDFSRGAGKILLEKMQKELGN
row,SMILES,% Inhibition @ 10 uM [%]
1,CC(C)CS(=O)(=O)C1=NSC2=NC(=O)/C(=C\c3ccc(O)cc3)C(=N)N21,-1.58
2,CN(Cc1ccccc1)C(=O)c1cnn2c1NC(c1cccs1)CC2C(F)(F)F (stereo not shown),1.8
3,CCc1ccc2occ(CC(=O)Nc3sc4c(c3C(=O)NCc3cccnc3)CCC4)c2c1,1
4,NC(=O)C1CCN(Cc2c(F)cccc2F)CC1,-5.31
5,CC1(C)CC(=O)C(/C=N/Cc2cccnc2)=C(O)C1,4.54
6,C=CCNc1cc(C)nc2nncn12,-1.02
7,CC(=O)c1ccc2c(c1)Cc1cc(C(C)=O)ccc1-2,-4.06
8,CCCCNC(=O)NC(=O)c1c(Cl)cc(Cl)nc1Cl,0.503
9,CC(=O)Nc1cccc(NC(=O)c2cccc(NC(=O)c3ccccc3)c2)c1,-3.1
10,C1CN(C2CN3CCC2CC3)CCO1 (stereo not shown),1.57
11,CCOc1cc(C2N=C(N)Nc3nc4ccccc4n32)ccc1O (stereo not shown),4.94
12,Cc1cc(NC(=O)CN2CCCCC2)c2ccccc2n1,0.266
13,Cc1oc(-c2ccc(Cl)cc2)nc1CN1CCC(C(=O)NCCN(C)C)CC1,2.37
14,CC(=O)/C(=C\c1ccccc1)S(=O)(=O)c1ccccc1,4.39
15,O=C(NCC1CCCO1)c1cc2n(n1)C(C(F)(F)F)CC(c1ccc(Br)cc1)N2 (stereo not shown),-3.63
16,CC1(C)CC(=O)C2=C(C1)N(c1cccc(Br)c1)C(N)=C(C#N)C2c1ccsc1 (stereo not shown),0.726
17,CC(C)c1ccc(C2c3c(oc4ccccc4c3=O)C(=O)N2CCCN2CCOCC2)cc1 (stereo not shown),3.93
18,CS(=O)(=O)CCC(C(=O)N1CCOCC1)N1Cc2ccccc2C1=O (stereo not shown),-2.41
19,CCOCCCNC(=O)C1CC(=O)N(CCc2ccccc2)C1 (stereo not shown),-0.0542
20,Cc1ccc(C(=O)N/C(=C/c2ccc(-c3ccc(Cl)cc3)o2)C(=O)NCCO)cc1,2.45
21,CC1=C(C(=O)OCCC(C)C)C(c2ccccc2Cl)NC(=O)N1 (stereo not shown),5.92
22,CCc1ccc2nc(N)sc2c1,8.71
23,COC(=O)c1cc2sccc2n1Cc1cc(=O)n2ccccc2n1,-7.84
24,CCOc1ccc([N+]2=C3CCCCN3C(O)(c3ccc(Cl)cc3)C2)cc1 (stereo not shown),4.92
25,CCOC(=O)N1CCN(C(=O)Cn2cc3c(n2)-c2c(oc(C(=O)N4CCCC4)c2C)CC3)CC1,0.335

row,SMILES,% Inhibition @ 10 uM [%]
1,CCn1cc2c(n1)-c1c(oc(C(=O)NCc3cccc(Br)c3)c1C)CC2,13.8
2,Brc1ccc2[nH]cc(-c3nnc4ccc5ccccc5n34)c2c1,3.65
3,Cc1cc(Cl)ccc1NC(=O)c1ccc(CN2CCOCC2)cc1,-5.99
4,CC1CCN(C(=O)Cn2ncn3c(cc4sccc43)c2=O)CC1,0.137
5,c1ccc2cc(-c3cn4ccsc4n3)ccc2c1,-4.03
6,COc1ccccc1N1CCN(CCCCN2C(=O)C3CCCCN3C2=O)CC1 (stereo not shown),1.39
7,CCOc1ccccc1NC(=O)c1c(Cl)c(C)nn1C,-1.07
8,O=C(CSc1nc(O)c2c(n1)CCN(Cc1ccccc1)C2)NCc1ccccc1,3.92
9,CC1CCCC(C)N1C(CNS(=O)(=O)c1ccc(Cl)cc1)c1ccccc1 (stereo not shown),-0.671
10,CCc1cccc2c(/C=C3\S/C(=N/C)N(C)C3=O)c[nH]c12,-10.8
11,COc1ccc(C(=O)NC2(C(F)(F)F)C(=O)Nc3c2c(=O)[nH]c(=O)n3-c2ccc(OC)cc2)cc1 (stereo not shown),-3.18
12,O=S(=O)(Nc1cccc(-c2cn3cccnc3n2)c1)c1cccc2ccccc12,-3.45
13,CC(C)C(O)CN1C=C(C#N)C(=O)NC1NC1CCCCC1 (stereo not shown),4.28
14,O=S(=O)(Nc1nc2ccccc2nc1Nc1ccc(Cl)cc1)c1ccccc1,3.16
15,CN1CCN(C(=O)CCN2C(=O)c3cccc4cccc(c34)C2=O)CC1,-6.62
16,CCc1cc(C)cc(OCCOc2ccc(/C=C3/C(=N)N4OC(C)=CC4=NC3=O)cc2OC)c1,-5.1
17,COc1cc(/C=C2/C(=N)N3C(SC)=NSC3=NC2=O)ccc1OC(C)C,0.287
18,O=C(O)[C@H]1CCCC[C@H]1C(=O)Nc1ccc(S(=O)(=O)N2CCc3ccccc32)cc1,2.67
19,COc1ccc(S(=O)(=O)Nc2ccc(OC)cc2OC)cc1,2.08
20,CCOc1ccc(CNC(=O)CN2C(=O)C(c3ccccc3)Oc3cccnc32)cc1 (stereo not shown),8.35
21,O=S(=O)(Nc1ccc(O)c(Br)c1)c1ccc(Cl)cc1,3.25
22,Cn1c(-c2ccccc2)c(C(=O)C(=O)NC(C)(C)C)c2ccccc21,-2.28
23,COc1ccc(C(C)NC(=O)c2ccc(C)s2)cc1 (stereo not shown),2.76
24,CCN(CCN(C)C)CC1CC=CCC1 (stereo not shown),-1.64
